Data as given in PubChem BioAssay AID1347073 (National Center for Advancing Translational Sciences (NCATS), 2019).
The whole screen tested about 45,000 compounds, of which about 200 (0.44%) were called active. About 7% were inconclusive and are not listed. Calls come from the whole dose curve; as a rule, active = well fitted activation curve with a large enough effect; inconclusive = small, poorly fitted or top-dose-only effect; inactive = no such curve, though single readings can be large or run the other way. The list shows a part of the results.

Experiment: qHTS of TDP-43 Inhibitors: NCGC Sytravon Library Screen; note: 0% is about no effect; nearly all actives have a fitted effect of over 55% in size
Settings: yeast TDP-43 toxicity rescue, BacTiter-Glo growth, 24 h; series mostly up to 46.1 µM; growth rescue (activation): at the top concentration
How it was run: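 TDP-43-expressing yeast, pregrown in raffinose, seeded at OD600 0.02 in galactose medium with compound for 24 hr at 30 deg C. Growth read by BacTiter-Glo luminescence, so rescue of toxicity appears as activation.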

Compound | growth rescue (activation) | Potency
CC(C)c1onc(C(=O)Nc2cccc(O)c2)c1[N+](=O)[O-] | inactive: 6.69% | 
COc1ccc(N(CC(=O)Nc2c(C)n(C)n(-c3ccccc3)c2=O)S(=O)(=O)c2ccc(C)cc2)cc1OC | inactive: 1.11% | 
O=C(C[n+]1ccccc1)N/N=C/c1cccs1 | inactive: -12.6% | 
O=C(O)C1=NN(c2c(F)c(F)cc(F)c2F)C(=O)CC1 | inactive: 3.57% | 
CCOC(=O)c1[nH]cnc1C(=O)Nc1cccc(OC)c1 | inactive: 7.24% | 
CN(CCCN1CCCCC1)C(=O)c1cc(COc2ccc(F)cc2F)on1 | inactive: -6.74% | 
COc1cc(/C=N/NC(=O)CC23CC4CC(CC(C4)C2)C3)cc(Br)c1OCC(=O)N(C)C | inactive: 1.43% | 
CCOC(=O)N/N=C\c1sccc1C | inactive: 6.78% | 
CSCC(=O)N1CCCC(CNC(=O)c2ccc(-c3ccccc3)cc2)C1 (configuration not stated) | inactive: 10.7% | 
Cc1nnc(SCC(=O)Nc2cccc(Cl)c2)n1CC1CCCO1 (configuration not stated) | inactive: -6.79% | 
O=C(CCCC(=O)N(CC(=O)NC1CCCC1)Cc1ccccc1Cl)Nc1ccccn1 | inactive: 17.1% | 
Cc1csc(NC(=O)c2cn3ccccc3n2)n1 | inactive: -23.9% | 
O=C(Nc1ccc(C(=O)O)c(O)c1)c1ccccc1 | inactive: -6.51% | 
COC(=O)c1nc[nH]c1C(=O)OC | inactive: 0.0478% | 
O=C(Nc1c(Cl)cccc1Cl)c1cc(-c2ccco2)on1 | inactive: 9.33% | 
Cc1ccc(Nc2nc(C)c(CCC(C)C)c(=O)[nH]2)cc1 | inactive: 21% | 
CC(C)n1cc(CN2CCC(n3nccc3NC(=O)CCCc3ccccc3)CC2)cn1 | inactive: 8.86% | 
CCc1cccc(C)c1NC(=O)Cn1nc(C)n2cccc2c1=O | inactive: 0.809% | 
Cc1ccc2cc(/C=N/NC(=O)c3ccccc3O)c(Cl)nc2c1 | inactive: 14.2% | 
COc1cc(C(=O)Nc2nc(-c3ccc(Cl)cc3)c(C)s2)ccc1OCC(=O)Nc1ccc(F)cc1 | inactive: 10.8% | 
Cc1ccc(N2CCN(CC(O)COc3ccc([N+](=O)[O-])cc3)CC2)cc1 (configuration not stated) | inactive: 1.65% | 
O=C(N[C@@H](Cc1c[nH]c2ccccc12)C(=O)O)c1ccc(Cl)cc1 | inactive: 3.17% | 

Compound | growth rescue (activation) | Potency
N#C/C(=C\c1ccc(OCc2ccc(Cl)cc2)cc1)C(=O)Nc1cccc(C(=O)O)c1 | inactive: 26.9% | 
S=C(Nc1ccccc1Cl)N1CCC(c2ccccc2)C1 (configuration not stated) | inactive: 17.5% | 
O=C(CCc1nc(-c2ccc(F)cc2)no1)NCc1ccccc1CN1CCOCC1 | inactive: 3.07% | 
COC(=O)c1cc(CNC(=O)Cc2ccsc2)ccc1OC | inactive: 9.93% | 
Cc1nn(C)cc1CN(C)C(=O)c1cc(-c2ccccc2)nc2ccc(Br)cc12 | inactive: 32.7% | 
COc1ccc(C(C)(C)C)cc1NC(=O)C1CC(=O)N(C2CCCC2)C1 (configuration not stated) | inactive: 6.22% | 
O=C(CN=C1NS(=O)(=O)c2ccccc21)OCC(=O)c1ccccc1 | inactive: 12.3% | 
Cc1ccc(CN2C(=O)S/C(=C\c3ccccc3OCC(=O)O)C2=O)cc1 | inactive: 27.8% | 
CCOC(=O)C(C)(C)N(Cc1ccccc1C)S(=O)(=O)c1ccc(Cl)c([N+](=O)[O-])c1 | inactive: 7.18% | 
CCOC(=O)CSc1ccc(C(=O)Nc2ccc(Cl)cc2)cn1 | inactive: -1.37% | 
O=C(CCNC(=O)c1ccc([N+](=O)[O-])cc1)NC1CCCc2ccccc21 (configuration not stated) | inactive: -7.23% | 
CC(C)C[C@H](NC(=O)NCc1ccc(F)cc1)C(=O)O | inactive: 7.61% | 
O=C(Nc1ccc(Cl)cc1F)C1CC1 | inactive: 16% | 
CCOc1ccccc1-n1c(SCC(=O)Nc2ccccc2C(=O)O)nc2ccccc2c1=O | inactive: 15.2% | 
O=C(c1cc(COc2ccc(F)cc2Cl)on1)N(Cc1ccncc1)CC1CCCO1 (configuration not stated) | inactive: 10.7% | 
C=CCSc1nc2ccccc2c(=O)n1C1CCOC(C)(C)C1 (configuration not stated) | inactive: 17.2% | 
CC(=O)N1CCN(C(=O)c2ccc3c(c2)OCO3)CC1 | inactive: 6.5% | 
CCCNC(=O)c1ccc(COc2ccc(CCC)cc2OC)o1 | inactive: 3.93% | 
CCOC(=O)c1sc(C)c2c(=O)n(CCc3ccccc3)nnc12 | inactive: 29.9% | 
CCOc1ccc(C(=O)NC(=S)Nc2ncccc2C)cc1[N+](=O)[O-] | inactive: 20.2% | 
O=C(Cn1c2ccccc2c(=O)c2ccccc21)N/N=C/c1cc([N+](=O)[O-])ccc1N1CCCCCC1 | inactive: 23.2% | 
COC(=O)C(C)Oc1ccc2c(c1)O/C(=C\c1ccco1)C2=O (configuration not stated) | inactive: 4.19% | 

Compound | growth rescue (activation) | Potency
CSc1ncccc1C(=O)OCc1c(F)cccc1Cl | inactive: 9.73% | 
CCC1CCCCN1S(=O)(=O)c1ccc(S(=O)(=O)N(Cc2ccccn2)CC2CCCO2)cc1 (configuration not stated) | inactive: 5.24% | 
C/C(=N\N(C)C)c1ccc(OCCOc2ccc([N+](=O)[O-])cc2)cc1 | inactive: 43.9% | 
COc1ccc(CC(=O)Nc2nc(-c3cccc([N+](=O)[O-])c3)cs2)cc1 | inactive: 4.94% | 
O=C(Nc1ccccc1F)N(CCCN1CCOCC1)Cc1cc2cc3c(cc2[nH]c1=O)OCCO3 | inactive: -28.6% | 
C=CCOc1ccc(C=Nc2ccc(Cl)cc2)c(O)c1 | inactive: -3.51% | 
COc1cc(OC)nc(Nc2nc(C(N)c3ccccc3)cs2)n1 (configuration not stated) | inactive: 13% | 
CC(=O)Oc1cc(OC(C)=O)c2c(=O)c(-c3ccc4c(c3)OCCCO4)c(C)oc2c1 | inactive: 9.73% | 
O=C(NCCCNC(=O)c1ccc(Cl)cc1Cl)c1ccccn1 | inactive: -9.31% | 
O=C(CNC(=O)c1ccccn1)N=Nc1c(O)[nH]c2ccccc12 | inactive: 18.8% | 
CCOc1ccc(N(CC(=O)N/N=C/c2cccnc2)S(C)(=O)=O)cc1 | inactive: 11.3% | 
Cc1ccc(NC(=O)Nc2ccc3c(c2)nc(C)n3C)cc1 | inactive: -7.4% | 
CCOC(=O)C1CCN(Cc2c(O)c3ccccc3oc2=O)CC1 | inactive: -9.41% | 
COC(=O)c1sc2nc(CN3CCN(c4cccc(C(F)(F)F)c4)CC3)[nH]c(=O)c2c1C | inactive: 6.47% | 
CSCCC(NC(=O)c1ccccc1C)C(=O)O (configuration not stated) | inactive: 11.4% | 
CC(=O)Nc1ccc(-c2ccnc3c2CC(C)(C(=O)NCC2CCOCC2)O3)cc1 (configuration not stated) | inactive: 2.67% | 
Cc1ccc(NC(=O)C2(c3ccccc3)CCOCC2)c([N+](=O)[O-])c1 | inactive: 14.2% | 
CC(C)[C@H](NC(=O)c1ccccc1)C(=O)N1CCc2ccccc21 | inactive: 0.7% | 
CCN(CC)C(=O)c1ccccc1NC(=O)CN1C(=O)c2ccccc2S1(=O)=O | inactive: -6.71% | 
COCCc1ccc(OC2(C)CCN(Cc3cccc(OCOC)c3)C2)cc1 (configuration not stated) | inactive: -9.3% | 
CN1CCC(NC(=O)Cc2c(F)cccc2Cl)CC1 | inactive: -15.1% | 
CCCc1ccc(O)c(N=Cc2cc(Br)cc(OCC)c2O)c1 | inactive: 20.8% | 

Compound | growth rescue (activation) | Potency
CC(=O)c1sc(NC(=O)c2ccccc2C)nc1C | inactive: 16.1% | 
Cc1nn2c(SCC(=O)c3cccs3)cc(C(C)(C)C)nc2c1-c1ccccc1 | inactive: 1.89% | 
COC(c1ccccc1)c1nnc(CCC(=O)N2CCCCCCC2)o1 (configuration not stated) | inactive: 5.7% | 
O=C(Nc1nc(-c2cccc3ccccc23)cs1)c1ccc2c(c1)S(=O)(=O)c1ccccc1C2=O | inactive: -0.225% | 
CC(=O)NCc1ccc(C(=O)CCl)cc1 | inactive: 21.9% | 
O=C(CN1CCN(c2ccccc2)CC1)Nc1cccc([N+](=O)[O-])c1 | inactive: 0.14% | 
Cc1cccc(C)c1NC(=O)CSC(=S)N1CCCC1 | inactive: 18.1% | 
O=C(CN1C(=O)CSc2ccc(S(=O)(=O)N3CCOCC3)cc21)NCc1cccnc1 | inactive: -13% | 
COC(=O)C1=C(C)N(C)C(=O)NC1c1ccccc1 (configuration not stated) | inactive: 1.73% | 
Cn1c(CCNC(=O)c2ccco2)nc2cc(NC(=O)c3ccccc3Cl)ccc21 | inactive: -4.87% | 
COc1cccc(C(=O)Nc2ccc3[nH]ncc3c2)c1 | inactive: 9.53% | 
CCc1ccc(Nc2nnc(SCn3nnc4ccccc4c3=O)s2)cc1 | inactive: 2.76% | 
O=C(CC1S/C(=N\S(=O)(=O)c2ccccc2)N(c2ccccc2)C1=O)Nc1ccc(F)cc1 (configuration not stated) | inactive: 4.88% | 
CC(=O)c1ccc(OCc2cc(C(=O)N(C)Cc3ccccn3)no2)cc1 | inactive: 21.7% | 
Cc1ccc(CNC(=O)CCNS(=O)(=O)c2ccc(Br)s2)cc1 | inactive: 14.7% | 
O=C(Cc1cc(C(=O)O)c2ccccc2n1)Nc1ccccc1 | inactive: -0.318% | 
Cc1cc(C)nc(NC(=O)/C=C/c2ccc(Cl)cc2)n1 | inactive: 21.9% | 
CC(C)C1Oc2ccccc2N(CC(=O)N2CCOCC2)C1=O (configuration not stated) | inactive: 8.89% | 
CCCn1c(C)cc(C(=O)COC(=O)CN=C2NS(=O)(=O)c3ccccc32)c1C | inactive: 20.8% | 
COC(=O)c1ccc(CSC2=NCCS2)cc1 | inactive: 18.7% | 
Cc1c(NS(=O)(=O)c2cc(C(=O)OCC(=O)N3CCC(C)CC3)ccc2Cl)c(=O)n(-c2ccccc2)n1C | inactive: 16.8% | 
CC(=O)Nc1ccc(NC(=O)C/C(C)=N/NC(=O)c2cccc3ccccc23)cc1 | inactive: 18.9% | 

Compound | growth rescue (activation) | Potency
Cc1ccc(CNC(=O)C2CCN(S(=O)(=O)c3ccc(Br)s3)CC2)cc1 | inactive: -3.02% | 
CC(/C=C/c1ccccc1)=N\NC(=O)Cn1cncn1 | inactive: 16.8% | 
COc1cc(OC)c(C2C3=C(CCCC3=O)Nc3nc4ccccc4n32)cc1OC (configuration not stated) | inactive: 9.05% | 
Cc1cc(NC(=O)COc2ccc(C(C)(C)C)cc2)no1 | inactive: 4.67% | 
COCC(=O)N1CCc2ccc(NC(=O)c3ccc(C(F)(F)F)cc3)cc2C1 | inactive: 9.93% | 
COc1cc(CNCc2ccco2)cc(OC)c1O | inactive: 4.27% | 
CCCCN(C)CCCNC(=O)c1cc(-c2cccs2)nc2ccccc12 | inactive: -8.87% | 
CCOC(=O)Cn1c(=O)oc2cc(S(=O)(=O)N(C)c3cccc(C)c3)ccc21 | inactive: 9.04% | 
Cc1ccc(-n2ncc3c(Nc4cccc(C(=O)O)c4)ncnc32)cc1 |  | inactive
O=C(Nc1ccccc1N1CCN(C(=O)c2ccccc2)CC1)c1ccco1 | inactive: 17% | 
Cc1nc2ccc(NS(=O)(=O)c3cccc([N+](=O)[O-])c3)cc2s1 | inactive: 27.8% | 
COc1ccc(NC(=O)CCc2nc3ccccc3s2)c(OC)c1 | inactive: -17.6% | 
COc1ccc(N2CCN(C(=O)/C=C/c3ccco3)CC2)cc1 | inactive: 5.96% | 
COc1cc(Br)cc(C2C3=C(CCCC3=O)N(c3ccc(F)cc3)C3=C2C(=O)CCC3)c1O | inactive: 4.69% | 
Cc1ccc(-c2cc(C(=O)Nc3cccc(S(=O)(=O)N(C)C)c3)c3ccccc3n2)o1 | inactive: 6.74% | 
OC[C@@H]1CN(Cc2cccs2)C[C@H](n2cnc3c(NCc4ccco4)ncnc32)O1 | inactive: 8.33% | 
CC(C)c1ccc(S(=O)(=O)N2CCN(C(C)C(=O)Nc3ccccc3-c3ccccc3)CC2)cc1 (configuration not stated) | inactive: 15.2% | 
Cc1ccc(/C=C2\SC(=S)N(CCC(=O)NNC(=O)c3ccccc3O)C2=O)cc1 | inactive: 10.1% | 
CNC(=S)N/N=C/c1ccc(-c2cccc(C(=O)O)c2)o1 | inactive: -39.8% | 
